The assay has as its system 855422-203-R-J1-PDC complex spheroids, viability. The experiment in a line: Anticancer human tumor 855422-203-R-J1-PDC patient-derived bladder carcinoma cell line growth inhibition [CLK]. The following applies: stronger effect = lower value. From the text:
A high-throughput screen of multi-cell type tumor spheroids was designed to identify active combinations of […] and targeted small molecules. Complex spheroids include a stromal component modeled by human endothelial cells (HUVEC) and fibroblasts modeled by human mesenchymal stem cells (MSCs). The concentration ranges selected for each drug and investigational agent were based upon clinically achievable concentrations if the clinical Cmax of the agent was known.
Compounds. The drugs and investigational agents: cirtuvivint (SM08502; NSC835563), CC-671 (NSC850746), vemurafenib (NSC761431), tapotoclax (NSC804041), sotorasib (NSC818433), adagrasib (NSC831453), MRTX-1133 (NSC836407), BAY2416964 (NSC825713), copanlisib (NSC816437), inavolisib (NSC800729), abemaciclib (NSC768073), osimertinib (NSC779217), entinostat (NSC756642), eltanexor (KPT-8602, NSC794443), venetoclax (NSC766270), ceralasertib (NSC777638), bortezomib (NSC756655), olaparib (NSC753686), talazoparib (NSC767125), alisertib (NSC759677), peposertib (NSC802822), gemcitabine (NSC613327), 5-fluorouracil (NSC19893), SN-38 (NSC673596), oxaliplatin (NSC266046), paclitaxel (NSC125973), and doxorubicin (NSC123127), were obtained from the National Cancer Institute (NCI) Developmental Therapeutics Program Chemical Repository. The FDA-approved anticancer drug set is available from the Developmental Therapeutics Program at https://dtp.cancer.gov/organization/dscb/obtaining/available plates.htm. […] The stock solutions were prepared in dimethyl sulfoxide (DMSO, Sigma-Aldrich, St. Louis, MO, cat. D2650), except for the platinum complexes which were prepared in saline (Quality Biological, Gaithersburg, MD, cat. 114-055-101), at 800-fold the tested concentration and stored at -70 degrees C prior to their use. All drugs and investigational agents were tested over a range starting from a high concentration at or near the clinical Cmax and decreasing in half-log increments. If the clinical Cmax for an agent had not been determined, the highest concentration tested was 10 microM.
Cell Culture. […]

Not every entry of the source has a single result; some have several. They are shown here; other results are not. The source may hold further records. Results that share an entry are repeats (runs, samples, wells, individuals or studies). Signs of the kind (2×) give the number of equal values in this list.
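Further: spheroids exposed to drugs for seven days before readout; 100% = DMSO vehicle control wells.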

As to `CNC(=O)c1ccc(Nc2nc(OC3CCCC3)c3c(-c4ccc5nc(C)oc5c4)c[nH]c3n2)c(OC)c1`, the viability, T/C was 115, 108, 104, 145, 116 (2×), 93.8, 132, 127, 98.5, 97.8, 94.2% (compound alone 0.0316 µM) and 42.2, 45.6, 69.1, 71, 60.1, 62.8, 70.9, 62.4, 51.4, 62.6, 56% (compound alone 0.1 µM).
On to `CN1CCN(c2cc(C(=O)Nc3cc4cc(-c5cnn(C)c5)ccc4cn3)ccn2)CC1`, for which the viability, T/C (compound alone 0.0316 µM) is 105 (2×), 107, 113, 91.1, 98.2, 106, 103, 95, 104, 120, 109%.

The values are drawn from PubChem BioAssay AID2060609 (Molecular Pharmacology Branch, DTP, NCI, 2025).
